Read counts are not given, so values of variants with three or more changes are uncertain.

This passage reports self-cleavage results from the RNAGym collection of RNA variant scans (doi:10.7554/elife.90254).

The chains are these.
B1: LINE1-full (parent)
chain: UACGUAGGUGGUUUUCCCCUGAUAGUGCUAAGGGGGCCUGGAAGUUUGGACUGGGCAGAGCUCAACACAGCGUGGCAAAGUGGCUGUGGCUAGACUGCCUCUCUGGAUUCCUCGUCACUCAGCAGGGCAUCUCUGAGAGAAAUGCC

The variants in the series derive from B1. In words: self-cleavage, relative activity (ratio to wild type); higher = more cleavage; in vitro, sequencing; the parent is a self-cleaving ribozyme.
Take UACGUAGGCGGUUUCCCCCCGAUAGUGCUAAGGGGGCCUGGAAGUUUGGACUGGGCAGAGCUCAACACAGCGUGGCAAAGUGGCUGUGGCUAGACUGCCUCUCUGGAUUCCACGUCACACAGCAGGGCAUCUCUGAGAGAAAUGCC [U9C U15C U20C U112A U119A]: the self-cleavage stood at 0.79.
With UACGUAGGCGGUUUUCCCCUGACAGUGCUAAGGGGGCCUGGAAGUUUGGACUGGGCAGAGCUCAACACAGCGUGGCAAGGUGGCUGUGGCUAGACUGUCCCUCUGGAUUCCCCGUCACUCAGCAGGGCAUCUCUGAGAGGAAUGCC [U9C U23C A79G C98U U100C U112C A140G], the self-cleavage is 0.29.
For UACGUAGGCGGUUUUCCCCUGAUAGAGCUAAGGGGGCCUGGAAGUUUGGACUGGGCAGGGCUCAACACAGCGUGGCAAAGUGGCUGUGGCUAGACUGCCUCUCUGGGUUCCUCGUCACUCAGCAGGGCAUCUCUGAGAGAAAUGCC [U9C U26A A59G A107G], the self-cleavage was 0.13.
To UACGUAGGCGGUUUGCCCCUGAUAGUGCUAAGGGGGCCUGGAAGUUUGGACUGGGCAGAGCUCAACACAGCGUGGCAAAGUGGCUGUGGCUGGACUGCCUCUCUGGAUUCCUCGUCACUCAGCAGGGCAUCUCUGAGAGAAAUGCC [U9C U15G A92G] belongs 0; to UACGUAGGCGGUUUUCCCCAGAUAGUGCUAAGGGGGCCUGGAAGUUUGGACUGGGCAGAGCUCAACACAGCGUGGCAAAGUGGCUGUGGCUAGACUGCCUCUCUGGAUUCCUCGUCACUCAGCAGGGCAUCUCAGAGAGAAAUGCC [U9C U20A U134A], 0.82.
As for UACGUAGGCGGUUUCCCCCUGAUAGUGCUAAGGGGGCCUGGAAGCUUGGACUGGGCAGAGCUCAACUCAGCGUGGCAAAGUGGCUGUGGCUAGACUGCCUCUCUGGAUUCCUCGUCACUCAGCAGGGCAUCUCUGAGAGAAAUGCC [U9C U15C U45C A67U], the self-cleavage came out at 0.
As to UACGUAGGCGGUUUUCCCCGGAUAGUGCUAAGGGGGCCUGGAAGUUUGGACUGGGCAGAGCUCAACACAGCGCGGCAAAGUGGCUGUGGCUAGACUGCCUCUCUGGAUUCCUCGUCACUCAGCAGGGCAUCUCUGAGAGAAAUGCC [U9C U20G U73C], the self-cleavage is 0.51.
Turning to UACGUAGGCGGUUUCCCCCUGAUAGUGCUAAGGGGGCCUGGAAGUUUGGACUGGGCAGAGCUCAACACAGCGUGGUAAAGUGGCUGUGGCUAGACUGCCUCUCUGGAUUCCUCGUCACUCAGCAGGGCAUCUCUGAGAGAAAUGCC [U9C U15C C76U], the self-cleavage stood at 1.7.
For UACGUAGGCGGUUUUCCCCCGAUAGUGCUAAGGGGGCCUGGAAGUUUGGACUGGGCAGAGCCCAACACAGCGUGGCAAAGUGGCUGUGGCUAGACUGCCUCUCUGGGUUCCUCAUCACUCAGCAGGGCACCUCUGAGAGAAAUGCC [U9C U20C U62C A107G G114A U130C], the self-cleavage was determined as 0.
To UACGUAGGCGGUUUUCCCCCGAUAGUGCUAAGGGGGCCUGGAAGUUUGGACUGGGCAGAGCUCAAUACAGCGUGGCAAAGUGGCUGUGGCUAGACUGCCUCUCUGGAUUCCUCGUCACUCAGCAGGGCAUCUCUGAGAGAAAUGCC [U9C U20C C66U] belongs 0; to UACGUAGGCGGUUUUCCCCAGAUAGUGCUGAGGGGGCCUGGAAGUUUGGACUGGGCAGAGCUCAACACAGCGUGGCAAAGUGGCUGUGGCUAGACUGCCUCUCUGGAUUCCUCGUCACUCAGCAGGGCAUCUCUGAGAGAAAUGCC [U9C U20A A30G], 0.98; to UACGUAGGCGGUUUUCCCCAGAUAGUGCUAAGGGGGCCUGGAAGUUUGGACUGGGCAGAGCUCAACACAGCGUGGCAAGGUGGCUGUGCCUAGACUGCCUCUCUGGAUUCCUCGCCACUCAGCAGGGCAUCUCUGAGAGAAAUGCC [U9C U20A A79G G89C U115C], 0.
Turning to UACGUAGGCGGUUUUCCCCCGAUAGUGCUAAGGGGGCCUGGAAGUUUGGACUGGGCAGAGCUCAACACAGCGUGGCAAAGCGGCUGUGGCGAGACUGCCUCUCUGGAUUCCUCGUCACUCAGCAGGGCAUCUCUGAGAGGAAUGCC [U9C U20C U81C U91G A140G], the self-cleavage is 0.77.
For the variant UACGUAGGCGGUUCUCCCCUGACAGUGCUAAGGGGGCCUGGAAGUUUGGACUGGGCAGAGCUCAACACAGCACGGCAAAGUGGCUGUGGCUAGACUGCCUCUCUGGAUUCCUCGACACUCAGUAGGGCAUCUCUGGGAGAAAUGCC [U9C U14C U23C G72A U73C U115A C123U A136G], the self-cleavage amounted to 2.05.
On to UACGUAGGCGGUUUACCCCCGAUAGUGCUAAGGGGGCCUGGAAGGUUGGACUGGGCAAAGCUCAACACAGCGUGGCAAAGUGGCUGUGGCUAGACUGCCUCUCUGGAUUCCUCGUCACUCAGCAGGGCAUCUCUGAGAGAAAUGCC [U9C U15A U20C U45G G58A], for which the self-cleavage amounted to 0.
Under UACGUAGGCGGUUCUCCCCUGAUAGUGCUAAGGGGGCCUGGAAGUUUGGACAGGGCAGAGCUCAACACAGCGUGGCAAAGUGGCUGUGGCUAGACUGCCUCUCUGGAUUCCUCGUCACUCAGCAGGGCAACUCUGAGAGAAAUGCC [U9C U14C U52A U130A] stands 0.15; under UACGUAGGCGGUUCUCCCCUGAUAGUGCCAAGGGGGCCUGGAAGUUUGGACUGGGCAGAGCUCAACACAGCGUGGCAAAGUGGCUGUGGCUAGACUGCCUCUCUGGAUCCCUCGUCACUCAGCAGGGCAUCUCUGAGAGAAAUGCC [U9C U14C U29C U109C], 0; under UACGUAGGCGGUUUUCCCCUGACAGUGCUAAGCGGGCCUGGAAGUUUGGACUGGGCAGAGCUCAACACAGCGUGGCAAAGUGGCUGUGGCUAGACUGCCUCUCUGGAUUCCUCGUCACUCAGCAGGGCAUCUCUGAGAGAAAUGCC [U9C U23C G33C], 0.71.
UACGUAGGCGGUUUUCCCCUGAUAGAGCUAAGGGAGCCUGGAAGUUUGGACUGGGCAGAGCUCAACACAGCGUGGCAAAGUGGCUGUGGCUAGACAGCCUCUCUGGAUUCCUCGUCACUCAGCAGGGCAUCUCUGAGAGAAAUGCC [U9C U26A G35A U96A]: the self-cleavage stood at 0.12.
With UACGUAGGCGGUUUACCCCUGAUAGUGCUAAGGGGGCCUGGAAGUUUGGACUGGGCAGAGCUCAACACAGCGUGGCAAAGUGGCUGUGGCUAGACUGCCUCUCUGGAUUCCUCGUCACUCAGCAGGGCAUCUCUGCGAGAAAUGCC [U9C U15A A136C], the self-cleavage came out at 0.42.
